Assay results as given in the RNAGym collection of RNA variant scans (doi:10.1101/gad.245936.114).
This sample is rich in variants without activity.

B1: tRNA (parent)
chain: CUCUCGGUAGCCAAGUUGGUUUAAGGCGCAAGACUUUAAUUUAUCACUACGAAAUCUUGAGAUCGGGCGUUCGACUCGCCCCCGGGAGAUUUUUUCCUCGAGCAA

Variants of: B1
Assay: nonsense suppression (GFP-seq) (ratio to wild type); higher = more function; SUP4oc tRNA, yeast GFP reporter sort-seq
Method in brief: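 Yeast were grown in raffinose/galactose medium with 80 mg/L adenine, each strain bearing a genome-integrated ochre-suppressor tRNA variant from a ~3% random-mutation library, a galactose-driven GFP ochre reporter, and RFP. After sorting into GFP/RFP bins, every bin was sequenced on an Illumina platform at phred ≥30. The GFPSEQ value, a measure of nonsense suppression, is the weighted bin median GFP/RFP relative to the unmutated parent tRNA, using each variant's estimated cell share per bin as the weight. Only variants with ≥100 reads and ≥30 cells were included.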

Question: Which nonsense suppression does the source give for CUCUCGGUAGCCAAGUGGUUUUAAGGCGCAAGACUUUAAUUUAUCACUACGAAAUCUUGAGAUCGGGCGUUCGACUCGCCCCCGGGAGAUUUUUUCCUCGAGCAA here?
Answer: The nonsense suppression was 1.05.

Question: With CUCUCGGUAGCCAAGUGGGUUUAACGCGCAGGACUUUAAUUUAUCACUACGAAAUCUUGAGAUCGGGCGUUCGACUCCCCCCCGGGUGAUUUUUUCCUCGAGCAA as the variant, how does the nonsense suppression read?
Answer: The nonsense suppression was no more than 0.026.

Question: With CUCUCGGUAGCCAAGUGGGUUUAAGGCACAAGACUUUAAUUUAUCACUACGAAAUCUUGAGAUGGGGCGUUCGACUCGCCCCCGGGAGAUUUUUUCCUCGAGCAA as the variant, how does the nonsense suppression read?
Answer: The nonsense suppression was no more than 0.026.

Question: With CUCUCGGUAGCCAAGUGGGUUUAAGGCCCAAAACUUUAAUUUAUCACUACGAAAUCUUGGGAUCGGGCGUUCGACUCGCCCCCGGGAGAUUUUUUCCUCGAGCAA as the variant, how does the nonsense suppression read?
Answer: The nonsense suppression was no more than 0.026.

Question: Which nonsense suppression does the source give for CUCUCGGUAGCCAAGUGGGUUUAAGGCCCAAGACUUUAAUUUAUCACUACGAAAUCUUGAGAUCGGGCGCUCGACUCGCCCCCGGGAGAUUUUUUCCUCGAGCAA here?
Answer: Its nonsense suppression is no more than 0.026.

Question: For CUCUCGGUAGCCAAGUGGGUUUAAGGCGCAAAACUUUAAUUUAUCACUACGAAAUCUUGAGAUCGGGCGUUCGACUCGCCCCUGGGAGAUUUUUUCCUCGAGCAA, which nonsense suppression is on record?
Answer: Its nonsense suppression is no more than 0.026.

Question: Which nonsense suppression does the source give for CUCUCGGUAGCCAAGUGGGUUUAAGGCGCAAGACUUUAAUUUAUCACUACGAAAUCUUCAGAUCAGGCGUUCGACUCGCCCCCGGGAGAUUUUUUCCUCGAGCAA here?
Answer: Its nonsense suppression is no more than 0.026.

Question: Which nonsense suppression does the source give for CUCUCGGUAGCCAAGUGGGUUUAAGGCGCAAGACUUUAAUUUAUCACUACGAAAUCUUGAGAUCGAGCGUUCGACUCGCACCCGGGAGAUUUUUUCCUCGAGCAA here?
Answer: Its nonsense suppression is no more than 0.026.

Question: For CUCUCGGUAGCCAAGUGGGUUUAAGGCGCAAGACUUUAAUUUAUCACUACGAAAUCUUGAGAUCGGCCGUUCGACUCGCCCCCUGGUGAUUUUUUCCUCGAGCAA, which nonsense suppression is on record?
Answer: The nonsense suppression was no more than 0.026.

Question: For CUCUCGGUAGCCAAGUGGGUUUAAGGCGCAAGACUUUAAUUUAUCACUACGAAAUCUUGAGAUCGGUCGUUCGACUCGCCCCCGGGAGAUUUUUUCCUCGAGCAA, which nonsense suppression is on record?
Answer: The nonsense suppression was no more than 0.026.

Question: For CUCUCGGUAGCCAAGUGGGUUUAAGGCGCAAGACUUUAAUUUAUCACUACGAAAUCUUGAGAUCGGUCGUUCGGCUCGCCCCCGGGAGCUUUUUUCCUCGAGCAA, which nonsense suppression is on record?
Answer: The nonsense suppression was no more than 0.026.

Question: With CUCUCGGUAGCCAAGUGGGUUUAAGGCGCAAGACUUUAAUUUAUCACUACGAAAUCUUGAGAUCGGGCGUUCCACUCGCCCCCGGGAGAUUUUUUCCUCGAGCAA as the variant, how does the nonsense suppression read?
Answer: The nonsense suppression was no more than 0.026.

Question: For CUCUCGGUAGCCAAGUGGGUUUAAGGCGCAAGACUUUAAUUUAUCACUACGAAAUCUUGAGAUCGGGCGUUCGACUCCCCCCCGGGAGAUUUUUUCCUCGAGCAA, which nonsense suppression is on record?
Answer: Its nonsense suppression is no more than 0.026.

Question: Which nonsense suppression does the source give for CUCUCGGUAGCCAAGUGGGUUUAAGGCGCAAGACUUUAAUUUAUCACUACGAAAUCUUGAGAUCGGGCGUUCGACUCGCCCCCGGAAGAUUUUUUCCUCGAGCAA here?
Answer: The nonsense suppression was no more than 0.026.

Question: For CUCUCGGUAGCCAAGUGGGCUUAAGGCUCAAGACUUUAAUUUAUCACUACGAAAUCUUGAGAUCGGGCGUUCGACUCGCCCCCCGGAGAUUUUUUCCUCGAGCAA, which nonsense suppression is on record?
Answer: Its nonsense suppression is no more than 0.026.

Question: For CUCUCGGUAGCCAAGUGGGGUUAAGGCGCAAGACUUUAAUUUAUCACUACGAAAUCUUGAGAUCAGUCGUUCGACUCGCCCCCGGGAGAUUUUUUCCUCGAGCAA, which nonsense suppression is on record?
Answer: The nonsense suppression was no more than 0.026.

Question: For CUCUCGGUAGCCAAGUGGGUAUAAGGCGCAAGACUUUAAUUUAUCACUACGAAAUCUUGAGAACGGGCGUUCGACUCGCCCCCGGGAGAUUUUUUCCUCGAGCAA, which nonsense suppression is on record?
Answer: Its nonsense suppression is no more than 0.026.

Question: Which nonsense suppression does the source give for CUCUCGGUAGCCAAGUGGGUGUAAGGCGCAAUACUUUAAUUUAUCACUACGAAAUCUUGACAUCGGGCGUUCGACUCGCCCCCGGGAGAUUUUUUCCUCGAGCAA here?
Answer: The nonsense suppression was no more than 0.026.

Question: With CUCUCGGUAGCCAAGUGGGUUGAAGGCGCAAGACUUUAAUUUAUCACUACGAAAUCUUGAGAUCGGGCGUUCGACUCGCCCCCGGGAGAUUUUUUCCUCGAGCAA as the variant, how does the nonsense suppression read?
Answer: Its nonsense suppression is 1.04.

Question: Which nonsense suppression does the source give for CUCUCGGUAGCCAAGUGGGUUUAAGGCGCAAGACUUUAAUUUAUCACUACGAAAACUUGAGAUCGGGCGUUCGACUCGCCCCCGGGAGAUUUUUUCCUCGAGCAA here?
Answer: Its nonsense suppression is no more than 0.026.

Question: For CUCUCGGUAGCCAAGUGGGUUUAAGGCGCAAGACUUUAAUUUAUCACUACGAAACCUUGAGAUCGGGCGUUCGACUGGCCCCCGGGAGAUUUUUUCCUCGAGCAA, which nonsense suppression is on record?
Answer: Its nonsense suppression is no more than 0.026.

Question: Which nonsense suppression does the source give for CUCUCGGUAGCCAAGUGGGUUUAAGGCGCAAGACUUUAAUUUAUCACUACGAAAUCUUGAGAUCGGGCGCUCGACUCGCCCCCGGGAGAUUUUUUCCUCGAGCAA here?
Answer: Its nonsense suppression is no more than 0.026.

Question: With CUCUCGGUAGCCAAGUGGGUUUAAGGCGCAAGACUUUAAUUUAUCACUACGAAAUCUUGAGAUCGGGCGUCCGACUCCCCCCCGGGAGAUUUUUUCCUCGAGCAA as the variant, how does the nonsense suppression read?
Answer: The nonsense suppression was no more than 0.026.

Question: Which nonsense suppression does the source give for CUCUCGGUAGCCAAGUGGGUUUAAGGCGCAAGACUUUAAUUUAUCACUACGAAAUCUUGAGAUCGGGCGUGCGACUCGCCCCCGGGAGAUUUUUUCCUCGAGCAA here?
Answer: Its nonsense suppression is no more than 0.026.

Question: For CUCUCGGUAGCCAAGUUAGUUUUAGGCGCAAGACUUUAAUUUAUCACUACGAAAUCUUGAGAUCGGGCGUUCGACUCGCCCCCGGGAGAUUUUUUCCUCGAGCAA, which nonsense suppression is on record?
Answer: The nonsense suppression was no more than 0.026.

Question: With CUCUCGGUAGCCAAGUUAGUUUUAGGCGCAAGACUUUAAUUUAUCACUACGAAAUCUUGAGUUCGGGCGUUCGACUAGCCCCCGGGAGAUUUUUUCCUCGAGCAA as the variant, how does the nonsense suppression read?
Answer: The nonsense suppression was no more than 0.026.

Question: Which nonsense suppression does the source give for CUCUCGGUAGCCAAGUUAGUUUACGGAGCAAGACUUUAAUUUAUCACUACGAAAUCUUGAGAUCGGGCGUUCGACUCGCCCCCGGGAGAUUUUUUCCUCGAGCAA here?
Answer: Its nonsense suppression is no more than 0.026.
